# According to the supplement of paper PMC11383711:
# The other results are listed elsewhere or left out. Binding of human antibodies (heavy:light variable regions, tested as scFv in one mRNA-display pool) to influenza hemagglutinin, with or without the stem antibody CR9114 bound first. Score = (mean enrichment − median) / interquartile range of that screen; higher = more enriched, 0 = typical non-binder. Active = above the paper's cut-off per screen: stems 28; unblocked H1 Solomon Islands 5, H1 Michigan 3, H3 5, H5 19, H7 2.85, both B 5; blocked 9, 7, H5 10, H7 10, B Phuket 10, B Lee 11.5. Scores are scaled within each screen and are no affinities; replicates correlate at about 0.6 to 0.9, and antibodies rare in the pool are noisier.
# B1: antibody 2F01 (protein)
# chain 1: ESGGGLIQPGGSLRLSCVASGFTINSFAMSWVRQAPGKGLQWVSSVNEQATYYAESVEGRFTISRDRSRNTLFLQMNYLRVEDTATYYCANDVDGDAGTWFESWGQGALVTVSS
# chain 2: EIVMTQSPDTLSVSPGERATLFCRASQNVKSNLTWYQQRPGQPPRLLIFGASTRATGVPARFSGSGSGTEFTLSISSLQSEDSAIYSCQQYNDWPPTFGQGTKVEIK
# B2: antibody 3G02 (protein)
# chain 1: VQLVESGGGVVQPGGSLRLSCAASSFTFRNYAMFWVRQAPGKGLEWLALIRNDGSEQNYAEVVKGRFTISRDNSKKTLYLQMNSLRPEDTAVYYCARNHLYAAYNSYYYGMDDWGQGTTVTVSS
# chain 2: DIQMTQSPSSLSTSVGDRVTITCQASQGIRNFLNWYQQKPGKAPKLLIYDASILETGIPSRFSGSGSGTDFTFTINSLQPEDIAIYYCQQYVNFPLTFGGGTKVEIK
# B3: K77-1D03 (protein)
# chain 1: EVQLFESGGDLIQPGGSLRLSCAAFAFTFSSYAMTWVRQAPGKGLEWVSGISGSGYRTHYADSVKGRFTISRDNSKNTLYLQMNSLRGEDTAVYYCAKVSSDFTIYGEGYYYYDMDVWGQGTTVTVSS
# chain 2: DIQMTQSPSSLSASVGDRVTIACRASQYIRTYLNWYQQKIGKAPKALIYGASDLESGVPSRFSGSGSGTDFNLTISSLQPEDFATYYCQQTYTTPPFTFGPGTKVEIK
# B4: K77-2D01 (protein)
# chain 1: QVQLVQSGAEVKKPGASVKVSCKASGYTFTDHHMHWVRQAPGQGLEWMGMINPSAASITYAPRFLGRVTMTRDTSTSTVYMELSSLRPEDTAVYYCAKVGIAVTGRGPHFYYYGLDVWGQGTTVTVSS
# chain 2: EIVLTQSPGTLSLSPGERATLSCRASQSVSDSYLAWYQHKPGQAPRLLMYGASSRATGIPERFSGSGSGTDFTLTISRLEPEDFAVYYCHRHGGVFGGGTKVEIK
# B5: W85-2B12 (protein)
# chain 1: EVQLVESGGGVVQPGRSLRLSCAVSGFTFSSFAMHWVRQAPGKGLEWMAVISYNGINKDYADSVKGRFTISRDNSKNTLYLQVSSLRPEDTAVYYCASGQRQFDYFPDGDYYYFDSWGQGTLVTVSS
# chain 2: QSALTQPASVSGSPGQSITISCTGTSSDVGGYNYVSWYQQHPGKAPKLMIYEVNNRPSGVSNRFSGSKSGNTASLTISGLRAEDEADYYCSSYTSTSPLVFGGGTKLTVL
# B6: 01.o.02 (protein)
# chain 1: QVQLQESGPGLVKPSETLSLICTVSSYSITSGYYWGWIRQPPGKGLEWIGNVYHSGSTHYNPSLKSRVTISLDTPKKQVSLRLSSLTAADTAVYYCTHSIIGNGRDFWGQGTLVAVSS
# chain 2: EIVMTQAPGTLSWSPGERTTLSGRASQQVSIIYLAWYQQRPEQAPSLIMYGASSRARGIPDRFSGRGLGTDFTLIISRQEPEDSTEYCCQQCGSTYLTFGQGTKVEIK
# Biological target: Influenza A H1N1 A/Michigan/45/2015 hemagglutinin ectodomain
# Test: mRNA display binding score; higher = more enriched on the antigen
# Settings: antigen blocked with: 2 µM CR9114 IgG
# Experimental: (§1)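 A pool of natively paired antibodies, displayed as scFv on mRNA, was selected once on antigen-coated beads and sequenced before and after; two replicates.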
row,Binder,mRNA display binding score
1,B1,inactive: 0.55
2,B2,inactive: 0.698
3,B3,inactive: 0.5
4,B4,inactive: -0.498
5,B5,inactive: -0.0148
6,B6,inactive: -0.107

# Same assay, conditions: antigen blocked with: nothing
row,Binder,mRNA display binding score
1,B1,inactive: 1.61
2,B2,inactive: 0.835
3,B3,inactive: 0.303
4,B4,inactive: -0.301
5,B5,inactive: 0.119
6,B6,inactive: 1.19

# Biological target: Influenza A H1N1 A/Solomon Islands/3/2006 hemagglutinin ectodomain
# Test: as above
# Settings: antigen blocked with: 2 µM CR9114 IgG
# Experimental: as §1
row,Binder,mRNA display binding score
1,B1,inactive: 0.428
2,B2,active: 37.2
3,B3,inactive: 1.1
4,B4,inactive: -0.726
5,B5,inactive: 0.0597
6,B6,inactive: 1.87

# Same assay, conditions: antigen blocked with: nothing
row,Binder,mRNA display binding score
1,B1,inactive: 0.645
2,B2,active: 74
3,B3,inactive: 0.0492
4,B4,inactive: -0.569
5,B5,inactive: 0.103
6,B6,inactive: 0.197

# Biological target: Influenza A H3N2 A/Singapore/INFIMH-16-0019/2016 hemagglutinin ectodomain
# Test: as above
# Settings: antigen blocked with: nothing
# Experimental: as §1
row,Binder,mRNA display binding score
1,B1,inactive: 0.909
2,B2,inactive: 1.86
3,B3,inactive: 0.111
4,B4,inactive: 1.04
5,B5,inactive: -0.166
6,B6,inactive: 1.1

# Biological target: Influenza A H5N1 A/Qinghai/1A/2005 hemagglutinin ectodomain
# Test: as above
# Settings: antigen blocked with: 2 µM CR9114 IgG
# Experimental: as §1
row,Binder,mRNA display binding score
1,B1,inactive: 0.169
2,B2,inactive: 0.574
3,B3,inactive: 2.7
4,B4,inactive: -0.251
5,B5,inactive: 0.107
6,B6,inactive: 0.689

# Same assay, conditions: antigen blocked with: nothing
row,Binder,mRNA display binding score
1,B1,inactive: 0.405
2,B2,inactive: 0.803
3,B3,inactive: -0.0402
4,B4,inactive: -0.322
5,B5,inactive: 0.0244
6,B6,inactive: 0.887

# Biological target: Influenza A H7N9 A/Shanghai/2/2013 hemagglutinin ectodomain
# Test: as above
# Settings: antigen blocked with: 2 µM CR9114 IgG
# Experimental: as §1
row,Binder,mRNA display binding score
1,B1,inactive: 0.454
2,B2,inactive: 0.202
3,B3,inactive: 1.63
4,B4,inactive: -0.132
5,B5,inactive: -0.153
6,B6,inactive: 2.61

# Same assay, conditions: antigen blocked with: nothing
row,Binder,mRNA display binding score
1,B1,inactive: 2.73
2,B2,inactive: 0.837
3,B3,inactive: 0.582
4,B4,inactive: 0.223
5,B5,inactive: 0.232
6,B6,inactive: 1.65

# Biological target: Influenza B/Lee/1940 hemagglutinin ectodomain
# Test: as above
# Settings: antigen blocked with: 2 µM CR9114 IgG
# Experimental: as §1
row,Binder,mRNA display binding score
1,B1,inactive: -0.442
2,B2,inactive: -0.548
3,B3,inactive: 0.436
4,B4,inactive: 1.3
5,B5,inactive: -0.37
6,B6,inactive: 0.289

# Same assay, conditions: antigen blocked with: nothing
row,Binder,mRNA display binding score
1,B1,inactive: 0.139
2,B2,inactive: 0.115
3,B3,inactive: -0.127
4,B4,inactive: 1.05
5,B5,inactive: -0.115
6,B6,inactive: 0.0659

# Biological target: Influenza B/Phuket/3073/2013 hemagglutinin ectodomain
# Test: as above
# Settings: antigen blocked with: 2 µM CR9114 IgG
# Experimental: as §1
row,Binder,mRNA display binding score
1,B1,inactive: 0.214
2,B2,inactive: 0.755
3,B3,inactive: 0.26
4,B4,inactive: 0.0044
5,B5,inactive: 0.034
6,B6,inactive: 0.969

# Same assay, conditions: antigen blocked with: nothing
row,Binder,mRNA display binding score
1,B1,inactive: 0.297
2,B2,inactive: 0.387
3,B3,inactive: 0.0569
4,B4,inactive: -0.379
5,B5,inactive: -0.104
6,B6,inactive: 0.124
